Test results as given in the RNAGym collection of RNA variant scans (doi:10.1073/pnas.2313332121).
This sample is rich in variants without activity.

B1: TPR 5TU (parent)
chain: GGAUCUUCUCGAUCUAACAAAAAAGACAAAUCUGCCACAAAGCUUGAGAGCAUCUUCGGAUGCAGAGGCGGCAGCCUUCGGUGGCGCGAUAGCGCCAACGUUCUCAACUAUGACACGCAAAACGCGUGCUCCGUUGAAUGGAGUUUAUCAUG

Variants of: B1
Assay: polymerase ribozyme fitness, log enrichment relative to wild type (log ratio); higher = more active; in vitro selection for triplet polymerase activity
How it was run: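 Fitness is a logarithmic measure of how a genotype enriched relative to the wild type, with replicate averages weighted by inverse variance. The logarithm uses base 2, and enrichment came from Illumina sequencing of input and output libraries. Those libraries were PCR-built, transcribed mutants of each subunit of a heterodimeric triplet polymerase ribozyme, passed through one triplicate in vitro selection round that included frozen incubation at −7 °C, gel excision of extended constructs and streptavidin-bead capture. Genotypes were kept only if they had ≥10 input reads and ≥1 read per output.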

Variant | polymerase ribozyme fitness (log ratio)
U15C A37U C118U | -0.404
U15G U55A A60U C76G C96A | ≤ -4.2
U15G A47U A73U U82C C93G G126U U148A | ≤ -4.2
U15G A47U A66G G70U A106G G133A U139C | ≤ -4.2
U15C U55G | 0.263
A16G A37C A52G A120U G143U | ≤ -4.2
U15A A142C | -0.894
A16C A19U A29U A39G A106U G128U U135G | ≤ -4.2
A16G A41C A49C G65A | ≤ -4.2
U15G C93U C108U A110U C118G U139A G141U | ≤ -4.2
U15G C87G A115G C116G | ≤ -4.2
U15G G48C G94A U139C G143U | ≤ -4.2
A16C G34U U55A U77G C93U A98U G124C | ≤ -4.2
A16C A110G | -3.67
U15G A17U C79G G80A G81U G92A G124A A147U | ≤ -4.2
A16C A22U G67C | ≤ -4.2
U15A C35A C54U U61G A121G | ≤ -4.2
A16C G42U G58C G84U G100A U102G A137U U144C | ≤ -4.2
U15A A40G A98G G133U | ≤ -4.2
U15G A19U A20U A29G U56A C57A C63U G94A U145G | ≤ -4.2
A16G A17U G42C G70A | ≤ -4.2

Variant | polymerase ribozyme fitness (log ratio)
U15G A29U G100U G124C | ≤ -4.2
U15G A21U A73U C79G C85U U109G U144A | ≤ -4.2
U15C A66C C85U C93A C105G C108A G124A | ≤ -4.2
U15C A26U C57G G59U C87A G88A A107U U148G | ≤ -4.2
U15C A64C G71A G100A C118U | ≤ -4.2
A16G A21G A30U A73U A91G G141A U145C | ≤ -4.2
U15G A28U G46C C57U C85A G86U U90A C95U C105U | ≤ -4.2
A16C A30U C95A U104C C105U C125A | ≤ -4.2
A16G A20G A49C G80U G88A C129A | ≤ -4.2
U15G U31A U45A U82C G133U A138G G152C | ≤ -4.2
U15C C27U U53A A122G | -1.39
A16C A22U G59U C75G | ≤ -4.2
U15G U31A C38G C43A G92A G94U | ≤ -4.2
U15C C54A G62A U78A G88C A113C A150U | ≤ -4.2
U15C A24G C76U U145A | ≤ -4.2
U15G C35A C87U A120C C149U | ≤ -4.2
U15C C75A C96G | ≤ -4.2
A16C A26G G58C G92C | ≤ -4.2
U15A U31C A40C G48U G83C C123U A142U | ≤ -4.2
A16G A37U U44A C96U G152U | ≤ -4.2
U15G G74A C96U C125A G141U | ≤ -4.2

Variant | polymerase ribozyme fitness (log ratio)
U15G A21C A49C C54U G86A | ≤ -4.2
U15C A21C C96G C123G A138C G140A | ≤ -4.2
A16G A19G A49C C57U G86C A91C | ≤ -4.2
A16G A21U A52C U53A C87A | ≤ -4.2
A16C C85G G88C G136C | ≤ -4.2
A16G A17C A21U A29G U55A C57G A91C C103U U145A | ≤ -4.2
U15G C27U G84A | -1.78
U15C C35U U56A A89C | 0.662
U15A G83U G84U G140U | ≤ -4.2
U15G G59A G83U C118G | -1.13
A16G A21C U44G A49C U53A C79G C85G G126A | ≤ -4.2
A16C C35A C87A A150C | ≤ -4.2
A16G A49U C63U C72U G88C G141C | ≤ -4.2
U15A C18U C54U C63G C93U G143C | ≤ -4.2
A16C U56A C103A G124U G143C | ≤ -4.2
U15G A26U C57A C72G A91U | ≤ -4.2
U15G C18G G50C U53G G92A U148G | ≤ -4.2
U15G A20C C69G U130G | ≤ -4.2
U15A U31A C36A G50U A66G G68A C95G | ≤ -4.2
U15G A39U C43U G50C G94A | ≤ -4.2
U15C G50C C51G A52G C87G C108A | ≤ -4.2

Variant | polymerase ribozyme fitness (log ratio)
A16C U31G A49U U61A C93G A142G G143C U145A U151G | ≤ -4.2
U15G G88C A98G U102C U127C | ≤ -4.2
U15C A24U A40G G68A C85A U139G | ≤ -4.2
U15C U145C A150G | -0.684
A16C C51A A52G U53G C85U U109A | ≤ -4.2
A16G A37C U55G U56A G59A G83A C87U G126A | ≤ -4.2
U15A G59A C76A U90A U145G | ≤ -4.2
A16C A17G C76G C96A A107G | ≤ -4.2
A16C U44A C69G C75G A91U C114G G117C | ≤ -4.2
A16C C95U | -0.661
U15C A23G U82A C93G G126A | -4.14
U15G A28C A60G C63U C85U C123U | ≤ -4.2
A16C U33A C93A U148C | ≤ -4.2
U15G C35U U45A A49U A52G C93U U104G C105G C116G | ≤ -4.2
U15G G88A C149G | ≤ -4.2
U15G A26C C35A G50C C93A G94U C96A A98G | ≤ -4.2
U15G G59U U135G | -3.96
U15A C57A C95U C114G C132A | ≤ -4.2
A16G A24U A52C C85A C95U | ≤ -4.2
U15G G25C A66G A73G G140A A142U | ≤ -4.2
